Data: the antibiotic and cytotoxicity screens of Wong et al. (2023)
The list shows a part of the results.

These compounds were tested on HSkMC (human skeletal muscle cells) (assay: cytotoxicity call (relative viability < 0.9)). Details: 10 µM.

SMILES | cytotoxicity call
c1ccc2c(c1)[nH]c1ncccc12 | inactive
Cc1ccccc1CCCCN | inactive
Cc1noc(C)c1S(=O)(=O)Nc1ccc2c(c1)CC(=O)N([C@@H](C)CO)C[C@H](C)[C@@H](CN(C)S(=O)(=O)c1cccs1)O2 | inactive
C[C@@H]1CCCCO[C@@H](CN(C)Cc2ccc(C(F)(F)F)cc2)[C@@H](C)CN([C@H](C)CO)C(=O)c2cc(NC(=O)CCC(F)(F)F)ccc2O1 | inactive
COc1ccc(NC(=O)Nc2ccc3c(c2)CC(=O)N([C@@H](C)CO)C[C@@H](C)[C@@H](CN(C)Cc2ccc(Oc4ccccc4)cc2)O3)cc1 | inactive
O=C(O)[C@H]1/C(=C/CO)O[C@@H]2CC(=O)N21 | inactive
C[C@H](CO)N1C[C@H](C)[C@@H](CN(C)C(=O)Nc2ccccc2)Oc2ccc(NC(=O)CCN3CCOCC3)cc2C1=O | inactive
Cn1cnc(S(=O)(=O)N[C@@H]2CC[C@H](CC(=O)Nc3ccccc3)O[C@@H]2CO)c1 | inactive
COc1ccc(S(=O)(=O)N(C)C[C@H]2Oc3ccc(NC(=O)Nc4c(C)noc4C)cc3CC(=O)N([C@@H](C)CO)C[C@H]2C)cc1 | inactive
Cc1ccc(S(=O)(=O)Nc2ccc3c(c2)CC(=O)N([C@H](C)CO)C[C@@H](C)[C@@H](CN(C)CC2CC2)O3)cc1 | inactive
CN1C(=O)c2cc(NC(=O)c3ccc(F)cc3)ccc2OC[C@H]2O[C@H](CC(=O)N3CCOCC3)CC[C@@H]21 | inactive
C[C@@H]1CCCCO[C@H](CN(C)C(=O)NC2CCCCC2)[C@@H](C)CN([C@H](C)CO)C(=O)c2cc(NC(=O)Nc3ccc(C(F)(F)F)cc3)ccc2O1 | inactive
Fc1ccc(-c2n[nH]c(=S)o2)cc1 | inactive
COc1ccc([C@H]([C@@H](O)Cc2ccccc2)N(CC#C[C@@H](O)c2ccccc2)[C@@H](Cc2ccccc2)C(OC)OC)cc1 | inactive
Nc1ncnc2c1ncn2[C@H]1O[C@@H](C(=O)N2CCN(CC(=O)Nc3cccc4c3CNC4=O)CC2)[C@H](O)[C@@H]1O | inactive
Cc1noc(C)c1NC(=O)N(C)C[C@@H]1Oc2ccc(NS(=O)(=O)c3ccccc3)cc2C(=O)N([C@H](C)CO)C[C@@H]1C | inactive
CN(C)c1ccc(C(=C2C=CC(=[N+](C)C)C=C2)c2ccc(N(C)C)cc2)cc1.[Cl-] | active
NC(C(=O)O)C(O)C(O)C(O)CO (stereo not given) | inactive
C[C@H]1CN([C@@H](C)CO)C(=O)c2cc(NS(=O)(=O)c3ccccc3)ccc2O[C@H]1CN(C)Cc1ccncc1 | inactive
Cc1ccc(S(=O)(=O)N2C[C@@H](O)COC[C@@H]3O[C@H](CC(=O)NCCCN(C)C)CC[C@H]32)cc1 | inactive

SMILES | cytotoxicity call
C[C@H]1CN([C@@H](C)CO)C(=O)c2cc(NC(=O)Nc3ccccc3)ccc2O[C@@H]1CN(C)Cc1ccc(C(F)(F)F)cc1 | inactive
C[C@H]1CN([C@@H](C)CO)C(=O)c2cccc(NC(=O)C3CCOCC3)c2O[C@H]1CN(C)C(=O)Nc1ccc2c(c1)OCO2 | inactive
CCNC(=S)N1CCCC[C@@H]1CO | inactive
CCCC#Cc1ccc2c(c1)O[C@@H](CN(C)Cc1ccc3c(c1)OCO3)[C@@H](C)CN([C@@H](C)CO)S2(=O)=O | inactive
C[C@@H]1CCCCO[C@H](CN(C)S(C)(=O)=O)[C@@H](C)CN([C@@H](C)CO)C(=O)c2cc(NS(=O)(=O)c3cn(C)cn3)ccc2O1 | inactive
CC12CCC(=O)C=C1CCC1C2C(O)CC2(C)C1CCC2(O)C(=O)COP(=O)([O-])[O-].CC[NH+](CC)CC.CC[NH+](CC)CC (stereo not given) | inactive
O=C(CCCCCCC(=O)Nc1ccccc1O)N/N=C/[C@H](O)[C@@H](O)[C@H](O[C@@H]1O[C@H](CO)[C@H](O)[C@H](O)[C@H]1O)[C@H](O)CO | inactive
COc1ccc(S(=O)(=O)N(C)C[C@@H]2Oc3cc(C#CC4CCCC4)ccc3S(=O)(=O)N([C@H](C)CO)C[C@@H]2C)cc1 | inactive
C[C@H](CO)N1C[C@H](C)[C@@H](CN(C)Cc2ccc(C(F)(F)F)cc2)Oc2ccc(NS(=O)(=O)c3ccc(Cl)cc3)cc2C1=O | active
C[C@@H]1CCCCO[C@H](CN(C)C(=O)Nc2ccc(F)cc2)[C@H](C)CN([C@@H](C)CO)C(=O)c2cc(NC(=O)Nc3ccccc3)ccc2O1 | inactive
CS(=O)(=O)Nc1ccc2c(c1)[C@@H]1C[C@H](CC(=O)NCc3ccc(-c4ccccc4)cc3)O[C@H](CO)[C@@H]1O2 | inactive
C[C@@H]1CCCCO[C@H](CN(C)C(=O)C2CCCCC2)[C@H](C)CN([C@@H](C)CO)C(=O)c2cc(NC(=O)Nc3cccc4ccccc34)ccc2O1 | inactive
Nc1cc(=O)nc2[nH][nH]c(=S)n12 | inactive
C[C@@H]1CN([C@H](C)CO)C(=O)CCCn2nncc2CO[C@@H]1CN(C)C(=O)Nc1ccc2c(c1)OCCO2 | inactive
C[C@@H]1CCCCO[C@H](CN(C)C(=O)C2CCCCC2)[C@@H](C)CN([C@@H](C)CO)C(=O)c2cc(NC(=O)Nc3ccc(C(F)(F)F)cc3)ccc2O1 | inactive
COC1(NC(=O)Cc2cccs2)C(=O)N2C(C(=O)[O-])=C(COC(N)=O)CSC21.[Na+] (stereo not given) | inactive
Cc1noc(C)c1S(=O)(=O)Nc1ccc2c(c1)C(=O)N([C@@H](C)CO)C[C@H](C)[C@H](CN(C)S(C)(=O)=O)OCCCC[C@@H](C)O2 | inactive
Cc1noc(C)c1S(=O)(=O)Nc1ccc2c(c1)C(=O)N([C@H](C)CO)C[C@H](C)[C@H](CN(C)C(=O)Nc1ccc(C(F)(F)F)cc1)OCCCC[C@@H](C)O2 | inactive
[N-]=[N+]=N[C@]1(CO)O[C@@H](n2ccc(N)nc2=O)[C@H](O)[C@@H]1O | inactive
C[C@@H]1CN([C@@H](C)CO)S(=O)(=O)c2ccc(C#C[C@@H](C)O)cc2O[C@@H]1CN(C)C(=O)Cc1ccccn1 | inactive
